Laboratory results from US5770563A, “Heparin- and sulfatide binding peptides from the type I repeats of human thrombospondin and conjugates thereof” (The United States of America as represented by the …, priority 1995, dated 1998).
Part of at least one peptide drawing is inferred or uncertain, most often the ends. Peptide text beside a SMILES is read from it.

Tests used:
[1] = target: thrombospondin binding to sulfatide; test: Inhibition of 125I-thrombospondin binding to sulfatide; design: species or system human
Procedure: (§1) The peptides were tested as inhibitors of laminin, thrombospondin or apolipoprotein E binding to a heparin-bovine serum albumen conjugate or to a sulfatide in a solid phase assay essentially following the procedure described in Zabrenetzky et al., Cancer Res., Vol. 50, pages 5937-5942 (1990). Sulfatide (0.2 μg/well for thrombospondin binding, 0.6 μg/well for laminin binding) was immobilized in a mixture of 50 ng of phosphatidyl choline, and 30 ng of cholesterol on polyvinyl chloride microtiter plates. Heparin-BSA (0.2 μg/well) was absorbed onto polyvinyl chloride microtiter plate wells by incubation of 50 μl of Dulbecco's PBS for 2 h at 37°. The wells were emptied and filled with 50 mM tris, pH 7.8 containing 150 mM NaCl, 1 mM CaCl2, 0.025% NaN3, and 1% BSA. After 30 minutes, the wells were emptied and 30 μl of various concentrations of potential inhibitory peptides diluted in the same buffer or buffer alone and 30 μl of ^125 I-labeled laminin, thrombospondin or apolipoprotein E (0.2 μg/ml) were added to each well. After 3 hours at 4°, the wells were washed 6 times with 0.15M NaCl, cut from the plate and the bound radioactivity counted. FIGS. 1A-B and 2A-B show the level of thrombospondin binding to sulfatide and heparin-BSA, respectively, in the presence of increasing concetrations of the peptides listed. FIGS. 3 and 4A-B show the level of laminin binding to sulfatide and heparin-BSA, respectively, in the presence of increasing concentrations of the listed peptides.

[2] = tested on: A2058 melanoma cells; test: 125I-thrombospondin binding to A2058 melanoma cells; type: cell-based, human; settings: 10 μg/ml peptide
Procedure: Melanoma cells (1×10^5 in 0.2 ml) were incubated with 0.2 μg/ml labeled laminin alone or in the presence of 200 micrograms per ml of peptides from SEQ ID NO:1, SEQ ID NO:2, or SEQ ID NO:3, type-I repeats from thrombospondin (FIG. 5A). Melanoma cells were also incubated with labelled laminin or thrombospondin alone or in the presence of 10 μg/ml of peptides from the first (184, SEQ ID NO:1), second (185, SEQ ID NO:2 and 246, SEQ ID NO:19), or third type I repeat of thrombospondin (186, SEQ ID NO:3) or 1 μg/ml heparin (FIG. 5B). The cells were centrifuged through oil to separate the free laminin from the bound laminin followed by quantifying the radioactivity in the cell pellet by a gamma counter. The results are presented in FIGS. 5A and B, as a percent of control binding determined in the absence of peptide and is the mean of triplicate determinations±the standard deviation.
Melanoma cells (3×10^5 cells in 0.2 ml) were incubated with 0.2 μg/ml of labelled I^125 -thrombospondin alone or in the presence of increasing concentrations of heparin or a peptide having the sequence according to SEQ ID NO:1 or a combination of the two inhibitors. […]
A2058 melanoma cells were harvested as described above and suspended in Dulbecco's PBS containing 1 mg/ml BSA. […] The supernatant fluid was aspirated, and the bottom of the tube was cut and counted.

[3] = target: laminin binding to sulfatide; test: Inhibition of 125I-laminin binding to sulfatide; design: species or system mouse; settings: Table 2, free peptide
Procedure: as §1

[4] = tested on: bovine aortic endothelial cells; test: Proliferation of bovine aortic endothelial cells; type: cell-based; settings: free peptide, 40 μM
Procedure: Endothelial cell proliferation was measured using the CELL TITER 96™ assay (Promega, Madison, Wis.). 5×10^3 cells were plated into each well of a 96-well culture plate in 0.5 or 5% FCS-containing medium together with the indicated concentrations of growth effectors. After 72 h, 15 μl of dye solution was added to each well, and the plates were incubated for an additional 4 h. Solubilization solution was added, and absorbance at 570 nm was determined after 24 h as described by the manufacturer.
FICOLL conjugates of peptide 353 (SEQ ID NO:28) (GGWSHWSPWSSC), 354 (SEQ ID NO:29) (CGGWSHWSPWSS), 224 364 g (SEQ ID NO:30) and 387 (SEQ ID NO:30) (three syntheses of KRFKQDGGWSHWSPWSSC), or free FICOLL were tested at the indicated concentrations as inhibitors of proliferation of bovine aortic endothelial cells in DMEM medium containing 0.5% (FIG. 24A) or 5% (FIG. 24B) fetal calf serum. […] Therefore, the conjugates are general inhibitors of both large and small vessel endothelial cell proliferation. […] This contrasts with existing inhibitors of endothelial cell proliferation,which are fully active only at low serum concentrations. […] Also tested for the ability to inhibit proliferation of bovine aortic endothelial cells were peptide conjugates 416f1, f2 and f3 (three preparations of the retro-inverso peptide Ac-allD-CSSWPSWHSWGGDQKFRK-NH2 coupled to FICOLL) 407 (SEQ ID NO:30) (an independent synthesis of peptide KRFKQDGGWSHWSPWSSC conjugated to FICOLL) 419 (SEQ ID NO:34) (KRFKAAGGWSHWSPWSSC coupled to FICOLL, where the Q and D of the native sequence were replaced with Ala residues) 392 (KRFKQAGGWSHWSPWSSC (SEQ ID NO:32) where the D is replaced with an Ala residue). […] In all cases, bFGF-stimulated proliferation was inhibited by the active conjugates.
Proliferation of bovine aortic endothelial cells was also determined for cells grown in the presence of the indicated concentrations of peptide 246 (KRFKQDGGWSHWSPWSS) (SEQ ID NO:19) or peptide 416 (retro-inverso) in RPMI-HITES (reg medium) or corresponding conditioned medium from MDA 435 breast carcinoma cells. […]

**Q.** With `N=C(N)NCCC[C@H](NC(=O)[C@@H](N)CCCCN)C(=O)N[C@@H](Cc1ccccc1)C(=O)N[C@@H](CCCCN)C(=O)N[C@@H](CCC(N)=O)C(=O)N[C@@H](CC(=O)O)C(=O)NCC(=O)NCC(=O)N[C@@H](Cc1c[nH]c2ccccc12)C(=O)N[C@@H](CO)C(=O)N[C@@H](Cc1c[nH]cn1)C(=O)N[C@@H](Cc1c[nH]c2ccccc12)C(=O)N[C@@H](CO)C(=O)N1CCC[C@H]1C(=O)N[C@@H](Cc1c[nH]c2ccccc12)C(=O)N[C@@H](CO)C(=O)N[C@@H](CO)C(=O)O` [Peptide 246, KRFKQDGGWSHWSPWSS] (H-KRFKQDGGWSHWSPWSS-OH) as the compound, how does the IC50 ([1]; Table 1, free peptide) read?
**A.** > 100 µM

**Q.** What about the “inhibition of binding to sulfatide, in words” value ([1]; thrombospondin and laminin binding to sulfatide) of the same compound?
**A.** markedly decreased activity

**Q.** And the “inhibition of thrombospondin binding to A2058 melanoma cells” value [2]?
**A.** more than 90%

**Q.** What about the IC50 [3] of the same compound?
**A.** > 100 µM

**Q.** And the “inhibition of aortic endothelial cell proliferation, in words” value [4]?
**A.** significantly inhibit proliferation
